Data as given in the supplement of paper PMC11417369.
Some of the results follow.

Tested on: PfSIP2 AP2 domain 1 (GST-tagged)
Experiment: gcPBM binding intensity (ln(normalized median fluorescence intensity)); higher = stronger DNA binding
Procedure, shortened: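 The binding buffer was 1× PBS containing 1% milk, 0.2 mg/ml BSA, 0.5% salmon testes DNA and 0.03% Triton X-100. In it, GST-tagged P. falciparum DNA-binding domains expressed in E. coli were applied for 1 h to an Agilent 4 × 180k array of primer-extended double-stranded 36-bp intergenic genomic probes plus negative controls. Binding intensity, read with Alexa488 anti-GST antibody and a 488 nm scan, is the highest Masliner-normalised natural-log median intensity across replicate spots of either probe orientation.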

Row | Sequence | gcPBM binding intensity (ln)
1 | TTCCCTTTTGTAAAATGTACATATATATTTAAACAA [XGTACX_site3263] | 7.16
2 | TTTTTATTAAAATGTATTTTAGGAAAAAACAAAAAA [XGTACX_negctrl_site437] | 6.88
3 | TAAGTTCCCTTTGAATGTACATATAATGAAAAGAAA [XGTACX_site826] | 7.17
4 | AAAAAACTTTTAAGCACACACATAGATAATATAGAT [CACACA_site6835] | 7
5 | CAACATTTGAAACACACACACATACAAACAAACAAA [CACACA_site3306] | 7.2
6 | TTTTTTTTTTTTGTCACACATATTTGTATTAATCAT [CACACA_site5235] | 7.13
7 | AATATTAACAATCGCACACATATTATTTTTCCAAAA [CACACA_site4982] | 7.14
8 | TGAAATGGAAACAACTGTACAAAATAAATATGATAT [XGTACX_site1311] | 7.19
9 | ATATAAATATAGCATACACACAAAAAAATAAAATAA [CACACA_site2333] | 7.01
10 | TTACTCATGAAAGATACACACATTCATTATATATAT [CACACA_site3252] | 7.51
11 | TATATAAACCCGTACACACACATATATGTATATATA [CACACA_site3507] | 7.26
12 | AAATTTACAATACATTGTACATATTAATAATATTCC [XGTACX_site3646] | 6.76
13 | AGACATAAGATAATTACACACAATACATCCCTATAT [CACACA_site2227] | 6.92
14 | TACTTCTACAAGAGAAGTACAATATTTTTTATATTA [XGTACX_site8351] | 6.78
15 | AATAAAAATTTACTTTGTACACATATTAAATTCAAT [XGTACX_site1957] | 6.93
16 | TGTAGTTTGTCCCATGCATGTTCCATTAAAATATAT [TGCATGCA_site854] | 7.47
17 | TTAACGTAAAATATAGTGCATAGTATCATATTGATA [GTGCAC_site9527] | 8.02
18 | CAATCAAAGAAACACACACACACCTAAACATAAAAG [CACACA_site2756] | 7.01
19 | AATGTATATATGTAATGTACATATATAATGTATATA [XGTACX_site6510] | 7.04
20 | AAATGTGTTTATTTAACACACAAAAGAAAAAATATA [CACACA_site6993] | 6.82
21 | AATGTAAAATATATGTGTACATATGTTTATATATAT [XGTACX_site2216] | 7.55
22 | GTGTGTTGTATATACTGTACATACTTTATATATAGT [XGTACX_site1876] | 7.61
23 | TATAACAAGTAATGTTGTACATTGTATTATGTAATA [XGTACX_site6372] | 6.79

Row | Sequence | gcPBM binding intensity (ln)
24 | AGATATATTATTAGGTGTACTATAAAATAAATTCAC [XGTACX_site221] | 7.17
25 | CGAACAAACAAATAAACACACAAAAAAAGATATATA [CACACA_site6944] | 6.68
26 | AAAAAAAATTAGGAAACATGCATGTCCCGATAAATA [TGCATGCA_site149] | 6.91
27 | AAAATCAAGTAGTATAAAGTAAGTATCATAAAAATA [CACACA_negctrl_site1554] | 6.89
28 | GTACACTAATTATGTGCACACAAATTAAAGGTCTAC [CACACA_site146] | 8.75
29 | ATAATAAAATGGAGAGTGCATACATGTTTATTTTAT | 8.78
30 | ACATAAAATAAATATACACACATATGTATATATTAT [CACACA_site3041] | 7
31 | ATAAAATATATATGCACACACATATATATTTCATAC [CACACA_site3547] | 7.24
32 | ATATATATATATATGTGTACTTATAAATATATCTGT [XGTACX_site4337] | 9.39
33 | AAAAGAATTTAGAAGGCATGCACTTAAACATGGATA [TGCATGCA_site699] | 7.9
34 | TAAATATTTTATTGTACACACTTTTTATGAATGATG [CACACA_site5694] | 7.2
35 | ATATCCCATATGTAATGTACTTACACTTTCTTAATT [XGTACX_site7020] | 7.02
36 | AATATTTAAAACAAATCACACATGTATCCATAAATG [CACACA_site5308] | 6.91
37 | AGGGAATAATATTAATGTACATATATGAACTTGTTT [XGTACX_site6089] | 6.85
38 | TATAAAAAGGAAAAATAAAAATAAAAATAAAAATTA [CACACA_negctrl_site1822] | 6.51
39 | TCTTTTAAAAATTAAGTGCATGTCCTTATAACAAAA | 8.65
40 | ATATTTATATATATATGTACATATGTGTGTTTTTAT [XGTACX_site3956] | 7.16
41 | AAAAAAATAATGTACACACACATATCTGTTTATATA [CACACA_site4270] | 6.94
42 | ATATATAACTTTTCTTAACACACAAAAAACAAAAAT [CACACA_site8748] | 7.3
43 | TCATAAACATTATGCACACAAAAATAAAAAAAAATA [CACACA_site1115] | 7.52
44 | AAGAAAAACTTTACGTGTACCAAACATCCTGCCGAC [XGTACX_site4895] | 6.74
45 | GTATTCTACAGACACATACACACATATATATATATA [CACACA_site3427] | 9.71
46 | AAAAAATAATTGAAGTGTACGTACAATGATTTTACT [XGTACX_site7663] | 6.99

Row | Sequence | gcPBM binding intensity (ln)
47 | GGGAGAAATTTATACATACACACATATATATATTAT [CACACA_site4039] | 7.17
48 | TTATAATATTGTGGTATACACACCTTACAAAAAGGT [CACACA_site2878] | 7.03
49 | TTTATTTTCATATGAACACACATATATATATTATAA [CACACA_site2369] | 7.13
50 | TGTTCTGAACGGTTCATGCACTTTTTTTTGTTAATT | 7.84
51 | CTGTTTTTGTTTTAAAGTACATTGTTCAATATACAT [XGTACX_site5288] | 7.5
52 | TACAATGTGGATAATTGTACAAAACCGATAAGAGGG [XGTACX_site6453] | 7.7
53 | TATATTCTACAAGAATTATGAATTGTCAGACCAAAT [CACACA_negctrl_site1101] | 6.87
54 | TTATATACCCTAATATGTTTTATTATTATTATATAT [TGCATGCA_negctrl_site6] | 6.87
55 | ATATAAATAATATAAATACACACTAAAAAAAATATA [CACACA_site542] | 7.09
56 | ATAATTTATATTCAGAAACACACGAAAAAAAAAAAT [CACACA_site1296] | 7.21
57 | AACTAAACAAAAGTTACACACATCATACGATATTAT [CACACA_site3180] | 6.78
58 | TATATTATATACGTCTGTACACAAATGAGAGGTAAA [XGTACX_site5538] | 7.61
59 | ACCATATAATTTTTTTGTACATAATGATTTTTTTTT [XGTACX_site1104] | 7.11
60 | ATGTTAAGAATAATTAGTACTTACATATGTATAATA [XGTACX_site4419] | 6.93
61 | TTATAAAAAAAAAAAAAAAATATATATATATATATA [XGTACX_negctrl_site592] | 9.62
62 | AAAAAATAATAATAAAATGAATAGATATGTATTTAT [TGCATGCA_negctrl_site210] | 6.92
63 | AATAATATATATTGTACACACAAAATGGGAAAAAAA [CACACA_site5100] | 7.07
64 | ATATATATATATATTTGTACAGAAAATATTTTAATA [XGTACX_site3706] | 9.47
65 | AGCAGAGTTACAATTTGTACGTAATTGATATAGATA [XGTACX_site4051] | 6.89
66 | AACATATTATCTTGTGAAAATAATATAAGTCACATT [TGCATGCA_negctrl_site339] | 6.68
67 | ACAAAATGTAAATAAACACACATATATATATATATA [CACACA_site1281] | 9.61
68 | AGTTTTTATTAAAACAAAATTTAATTATAACGTTGA [XGTACX_negctrl_site298] | 6.69
69 | CGTAGCCCCACTAACACACACAAATATACTCAATCA [CACACA_site5587] | 7.24

Row | Sequence | gcPBM binding intensity (ln)
70 | TTATATGTATGAACAAGTACATGCTATAATTATAAA [XGTACX_site1399] | 6.86
71 | TATATATATATATACACACATACATATATATATTTG [CACACA_site857] | 9.56
72 | ATATATATATATATATGTACATATATACATATATGT [XGTACX_site1521] | 9.45
73 | TTTTTTTTTTTTTGATGTACAATAATTAAAGAGTAA [XGTACX_site8403] | 7.08
74 | AGTAGTCTGGAGAAGAGTACATAGTTTCTGGTAGCT [XGTACX_site2023] | 6.81
75 | ATATTTACCATTGTATGTACATATATAAAATATATC [XGTACX_site3237] | 7.16
76 | GTATATATATATATATGTACATATTTAGAGTTCTGT [XGTACX_site5357] | 7.29
77 | AACATATACACGAACACACACACATATATATATATA [CACACA_site502] | 9.44
78 | AAAACAAATGAGTACACACACATAAAAATTGAAAAT [CACACA_site199] | 7.49
79 | TAAAGAAAAAAATGTTGTACTTTATGAAACATATTT [XGTACX_site412] | 7.01
80 | TCGGTATCTGTTCAAAGTACACATTTGTATACAAAA [XGTACX_site1890] | 7.18
81 | ACACTATCTTAGATTTGTACATATTTATATATGTAT [XGTACX_site8739] | 6.88
82 | TATATAACATATGGGACACACATGCAACTGTTATAT [CACACA_site3792] | 7.19
83 | TTTTTATATTATTTAATGAGAAATAATTATAAACAA [CACACA_negctrl_site553] | 6.9
84 | AAAAATATTATGATGTTTATTAGAAAGGAAAAAACT [CACACA_negctrl_site1417] | 7.06
85 | ATGTGATGTTATATATGTACTTATTTTTTAATAAGG [XGTACX_site1786] | 7.29
86 | TGCTTATCCATTTCTACACACAAAAAAAAAAAAAAA [CACACA_site37] | 7.35
87 | AAATGGGTTTATTTAACACACAAAAGAAAAAATATA [CACACA_site1938] | 6.98
88 | TATATATATTTATGTTGTACAAAATATTATTACGTA [XGTACX_site5384] | 7.22
89 | TTATATTATAACAAACGTACGAATTTTATACAAATA [XGTACX_site7258] | 7.1
